# Measured values reported in a collection of fitness landscapes (doi:10.1126/science.1257360).
# The list shows a part of the results.
# B1: PhoQ; a variant is named by its letters at X, in order, P23837 (parent)
# chain: MKKLLRLFFPLSLRVRFLLATAAVVLVLSLAYGMVALIGYSVSFDKTTFRLLRGESNLFYTLAKWENNKLHVELPENIDKQSPTMTLIYDENGQLLWAQRDVPWLMKMIQPDWLKSNGFHEIEADVNDTSLLLSGDHSIQQQLQEVREDDDDAEMTHSVAVNVYPATSRMPKLTIVVVDTIPVELKSSYMVWSWFIYVLSANLLLVIPLLWVAAWWSLRPIEALAKEVRELEEHNRELLNPATTRELTSLVRNLNRLLKSERERYDKYRTTLTDLTHSLKTPLXXLQXXLRSLRSEKMSVSDAEPVMLEQISRISQQIGYYLHRASMRGGTLLSRELHPVAPLLDNLTSALNKVYQRKGVNISLDISPEISFVGEQNDFVEVMGNVLDNACKYCLEFVEISARQTDEHLYIVVEDDGPGIPLSKREVIFDRGQRVDTLRPGQGVGLAVAREITEQYEGKIVAGESMLGGARMEVIFGRQHSAPKDE
# Variants of: B1
# Assay: enrichment ratio after two sorts for PhoP signalling (ratio (wild type AVST 3.29)); higher = more functional
# Conditions: with PhoP (E. coli)
row,Variant,enrichment ratio
1,YNFW,≤ 0.25
2,FLHR,≤ 0.25
3,GSMQ,10.1
4,WTWE,≤ 0.25
5,SCFW,≤ 0.25
6,QVTR,≤ 0.25
7,STHC,≤ 0.25
8,YMFP,≤ 0.25
9,MSVY,7.18
10,QPAK,≤ 0.25
11,SPRQ,≤ 0.25
12,GQAT,≤ 0.25
13,EAGK,≤ 0.25
14,PEAL,≤ 0.25
15,MIPD,≤ 0.25
16,LYMW,≤ 0.25
17,VDTC,≤ 0.25
18,SLPS,≤ 0.25
19,KIQD,≤ 0.25
20,AKYA,≤ 0.25
21,HSLF,3.47
22,AFPT,≤ 0.25
23,TILG,1.15
24,EQPI,≤ 0.25

row,Variant,enrichment ratio
1,HYRW,≤ 0.25
2,HFTE,≤ 0.25
3,NGHI,≤ 0.25
4,INWL,≤ 0.25
5,KTSA,≤ 0.25
6,HNGK,≤ 0.25
7,GECC,0.291
8,IIKD,≤ 0.25
9,HSCR,≤ 0.25
10,YQKQ,≤ 0.25
11,VRVM,≤ 0.25
12,MTDI,≤ 0.25
13,QHTL,≤ 0.25
14,TFGI,0.279
15,VQNK,≤ 0.25
16,AHKG,≤ 0.25
17,HWAR,≤ 0.25
18,SRFY,≤ 0.25
19,SWAL,≤ 0.25
20,QCQL,≤ 0.25
21,NYAL,≤ 0.25
22,YTGL,≤ 0.25
23,RIGY,≤ 0.25
24,NLGV,≤ 0.25

row,Variant,enrichment ratio
1,QINC,≤ 0.25
2,QYRK,≤ 0.25
3,IRCP,≤ 0.25
4,KHVR,≤ 0.25
5,VNMQ,9.37
6,YCSR,≤ 0.25
7,ANFE,≤ 0.25
8,NIDM,≤ 0.25
9,IYWP,≤ 0.25
10,VRMT,≤ 0.25
11,SMGY,7.3
12,RRPL,≤ 0.25
13,MMGY,≤ 0.25
14,STMK,9.3
15,NMMP,≤ 0.25
16,PTAE,≤ 0.25
17,KAWL,≤ 0.25
18,EVHW,≤ 0.25
19,KFWG,≤ 0.25
20,FQTS,≤ 0.25
21,PSLK,≤ 0.25
22,NARN,≤ 0.25
23,DLRE,≤ 0.25
24,CYSP,≤ 0.25

row,Variant,enrichment ratio
1,ELCG,≤ 0.25
2,VYMP,≤ 0.25
3,IYGL,≤ 0.25
4,PMSS,≤ 0.25
5,RGFH,≤ 0.25
6,KNRQ,≤ 0.25
7,ESER,≤ 0.25
8,EPFQ,≤ 0.25
9,MTGK,≤ 0.25
10,KFRY,≤ 0.25
11,RWDI,≤ 0.25
12,HDKL,≤ 0.25
13,IIPD,≤ 0.25
14,RQQI,≤ 0.25
15,FCGE,≤ 0.25
16,HWHI,≤ 0.25
17,PTVM,≤ 0.25
18,VVEP,≤ 0.25
19,HSVA,≤ 0.25
20,FNWD,≤ 0.25
21,SRGK,≤ 0.25
22,AFKW,≤ 0.25
23,HTCR,≤ 0.25
24,MVMG,1.65

row,Variant,enrichment ratio
1,EQDL,≤ 0.25
2,FLTC,≤ 0.25
3,NTCK,≤ 0.25
4,MAAF,≤ 0.25
5,YTPS,≤ 0.25
6,MVYQ,≤ 0.25
7,LQFS,0.355
8,WRTQ,≤ 0.25
9,DAKP,≤ 0.25
10,NVRY,≤ 0.25
11,TYGL,3.42
12,NPVP,≤ 0.25
13,QNSV,1.25
14,IAWY,≤ 0.25
15,SAVT,0.95
16,SLNV,≤ 0.25
17,MQVH,2.29
18,MYSI,≤ 0.25
19,LLYI,≤ 0.25
20,DPWG,≤ 0.25
21,ETLQ,≤ 0.25
22,SAYD,≤ 0.25
23,PLNK,≤ 0.25
24,WVVA,≤ 0.25

row,Variant,enrichment ratio
1,NKNA,≤ 0.25
2,GKLA,≤ 0.25
3,MLWF,≤ 0.25
4,MSNW,≤ 0.25
5,ERSE,≤ 0.25
6,THNY,3.01
7,KVEH,≤ 0.25
8,LKTN,≤ 0.25
9,FGVG,≤ 0.25
10,SFSA,0.898
11,EFLC,≤ 0.25
12,IVTI,≤ 0.25
13,SRCM,9.77
14,HQQV,≤ 0.25
15,QQYH,≤ 0.25
16,FGEQ,≤ 0.25
17,PDPE,≤ 0.25
18,GVCL,6.97
19,KSRG,≤ 0.25
20,WFDR,≤ 0.25
21,LSML,9.48
22,HRMC,≤ 0.25
23,KMYS,≤ 0.25
24,YYYT,≤ 0.25

row,Variant,enrichment ratio
1,VPTT,≤ 0.25
2,DIMH,≤ 0.25
3,RLKQ,≤ 0.25
4,MLCW,≤ 0.25
5,TNYS,8.4
6,QCHQ,≤ 0.25
7,RMHF,≤ 0.25
8,WYCN,≤ 0.25
9,QCMQ,≤ 0.25
10,SGTM,4.45
11,GFAA,≤ 0.25
12,FAVN,≤ 0.25
13,FMQN,≤ 0.25
14,MFTR,≤ 0.25
15,RVAM,≤ 0.25
16,FTLQ,6.79
17,EAEP,≤ 0.25
18,HTGS,≤ 0.25
19,FDKQ,≤ 0.25
20,DIAP,≤ 0.25
21,PWRK,≤ 0.25
22,YEKM,≤ 0.25
23,GDQS,≤ 0.25
24,VRNF,≤ 0.25

row,Variant,enrichment ratio
1,AFAR,≤ 0.25
2,TLGE,2.24
3,ALNS,≤ 0.25
4,FRAT,≤ 0.25
5,GCRP,≤ 0.25
6,GTHW,≤ 0.25
7,QQCA,≤ 0.25
8,WNRD,≤ 0.25
9,DDIP,≤ 0.25
10,NWNY,≤ 0.25
11,LYPK,≤ 0.25
12,WHGK,≤ 0.25
13,QALF,≤ 0.25
14,QIIY,≤ 0.25
15,AGRT,≤ 0.25
16,SVMY,3.92
17,TPDR,≤ 0.25
18,IAFP,≤ 0.25
19,ENLW,≤ 0.25
20,DWPY,≤ 0.25
21,SNCD,16.4
22,MFIP,≤ 0.25
23,DLVC,≤ 0.25
24,PYQR,0.539

row,Variant,enrichment ratio
1,PWIS,≤ 0.25
2,SNTW,≤ 0.25
3,FVGT,≤ 0.25
4,GMCF,1.76
5,DETM,≤ 0.25
6,KQRT,≤ 0.25
7,EGNK,≤ 0.25
8,ISST,≤ 0.25
9,NNSM,5.24
10,LVYD,≤ 0.25
11,AIWG,≤ 0.25
12,VAFW,≤ 0.25
13,IYSG,≤ 0.25
14,YDFW,≤ 0.25
15,SMYS,≤ 0.25
16,VLPL,≤ 0.25
17,GTLE,14.3
18,VCFL,≤ 0.25
19,SSHW,≤ 0.25
20,HKNK,≤ 0.25
21,GIDF,≤ 0.25
22,QYQY,≤ 0.25
23,KTNC,≤ 0.25
24,GNTR,≤ 0.25

row,Variant,enrichment ratio
1,WQFR,≤ 0.25
2,ICQQ,≤ 0.25
3,ICKR,≤ 0.25
4,QILW,≤ 0.25
5,ASHN,≤ 0.25
6,EKCT,≤ 0.25
7,NPDC,≤ 0.25
8,HNCH,≤ 0.25
9,QPVH,≤ 0.25
10,PRWT,≤ 0.25
11,MANM,≤ 0.25
12,FFHD,≤ 0.25
13,IPGN,≤ 0.25
14,INGL,≤ 0.25
15,HKFR,≤ 0.25
16,HCFV,≤ 0.25
17,SQRP,≤ 0.25
18,QDPM,≤ 0.25
19,FKNH,≤ 0.25
20,GEFW,≤ 0.25
21,SAMS,7.54
22,GTVW,≤ 0.25
23,KFLT,≤ 0.25
24,VWNF,≤ 0.25

row,Variant,enrichment ratio
1,FFFH,≤ 0.25
2,LANR,≤ 0.25
3,IQFT,≤ 0.25
4,GDCN,≤ 0.25
5,KDEW,≤ 0.25
6,KIHD,≤ 0.25
7,FWND,≤ 0.25
8,VNSS,≤ 0.25
9,PKHV,≤ 0.25
10,TLGS,5.19
11,MEKD,≤ 0.25
12,DLKV,≤ 0.25
13,RMYI,≤ 0.25
14,VHNR,≤ 0.25
15,KSWQ,≤ 0.25
16,SQVQ,15.1
17,PWWP,≤ 0.25
18,PSLY,≤ 0.25
19,PALP,≤ 0.25
20,RNNQ,≤ 0.25
21,SGAE,7.08
22,NMKS,≤ 0.25
23,TNAL,6.87
24,ALCW,6.49

row,Variant,enrichment ratio
1,RMHA,≤ 0.25
2,RAGT,≤ 0.25
3,SPGS,≤ 0.25
4,VVVG,≤ 0.25
5,GQLY,8.08
6,GYMN,≤ 0.25
7,DCML,≤ 0.25
8,VRWT,≤ 0.25
9,DGTQ,≤ 0.25
10,MSKG,≤ 0.25
11,TRPW,≤ 0.25
12,LVRD,≤ 0.25
13,IHKA,≤ 0.25
14,TLSM,25.5
15,KGCC,≤ 0.25
16,TMSG,24.1
17,PGYA,≤ 0.25
18,SINA,3.62
19,YDGL,≤ 0.25
20,GKVD,≤ 0.25
21,ILAN,≤ 0.25
22,SEWM,3.99
23,EGVV,≤ 0.25
24,TQNG,≤ 0.25

row,Variant,enrichment ratio
1,FQCF,≤ 0.25
2,YFAC,≤ 0.25
3,QFCN,≤ 0.25
4,YYSM,≤ 0.25
5,GRFV,≤ 0.25
6,RLRA,≤ 0.25
7,IIKR,≤ 0.25
8,IAMH,≤ 0.25
9,MLKR,≤ 0.25
10,WHSC,≤ 0.25
11,KHGM,≤ 0.25
12,AMGE,9.88
13,VMCQ,≤ 0.25
14,YMFL,≤ 0.25
15,VPII,≤ 0.25
16,MSPL,≤ 0.25
17,PEPE,≤ 0.25
18,LKQQ,≤ 0.25
